# Experimental data taken from PMC12040169 (PLOS Biology, 2025).
# This is one part of the list.
# Test system: T1, C. trachomatis L2/434/Bu expressing GFP (CTL2-GFP)
# T1 construct: L2/434/Bu GFP intracellular growth in HeLa cells
# Parameters: species or system HeLa; C. trachomatis total inclusion area by high-content imaging, normalised to DMSO
# Conditions: total inclusion area; 28.5 h, 10 µM; inhibitor
# In short: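 High-content imaging followed the bulk GFP/resorufin measurement: fixed, Hoechst-stained cells were scored for GFP inclusions and host nuclei per well. Total inclusion area and count served as growth proxies, nuclei number as the viability proxy. MIC calculation matched the bulk assay.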
row,Structure (SMILES),% of control remaining
1,CCc1nn(CC(=O)NC2CC2)c(=O)c2cc3sc(C)cc3n12 [CBK284099],82.3058
2,O=C(Nc1ccc(N2CCN(C(=O)c3ccccc3F)CC2)cc1)c1nc[nH]n1 [CBK269497],76.4068
3,O=C(Nc1ccc(S(=O)(=O)NCC2CCCO2)cc1)c1cc(-c2ccccc2)nc2ccccc12 (stereo not shown) [CBK267537],92.0434
4,COc1cc(/C=C2\NC(=S)NC2=O)c(Cl)cc1O [CBK102003],70.3809
5,O=C(CC1CCCC1)NCCn1nc(-c2cccs2)ccc1=O [CBK283841],86.5569
6,CS(=O)(=O)N(Cc1ccc(Cl)cc1)c1ccc(C(=O)Nc2cccnc2)cc1 [CBK263334],64.0766
7,CN(C)Cc1cc(CN(C)C)c(O)c(C(C)(C)C)n1 [CBK260969],102.281
8,O=C(c1ccccc1F)N1CCC(O)(c2cccnc2F)CC1 [CBK284356],87.636
9,CS(=O)(=O)N1CCCc2cc(-c3csc(-c4cnccn4)n3)ccc21 [CBK305239],21.5551
10,CC(=O)N1CCCc2cc(C(O)CN3CCC(O)(c4ccc(F)cc4)CC3)ccc21 (stereo not shown) [CBK286481],76.0178
11,COc1ccc(Cl)cc1N1CCN(C/C=C/c2ccccc2)CC1 [CBK126415],76.3422
12,CN(Cc1ccccc1)c1nc2c(c(=O)n(C)c(=O)n2C)n1CCSc1ncccn1 [CBK269564],90.5036
13,Cc1oc(C(=O)O)cc1CSCc1cc(C(=O)O)oc1C [CBK263275],101.935
14,CSc1nnc(Cc2nnc(SC)n2-c2ccccc2)n1-c1ccccc1 [CBK267145],103.796
15,c1ccc(Cn2cc(-c3nccnc3OC(c3ccccc3)c3ccccc3)cn2)cc1 [CBK107093],58.5113
16,O=C(CN1CCOCC1)N1CCC(Cn2cncn2)(C2CCCCC2)CC1 [CBK136803],90.5734
17,Cc1cc(Cl)c(OCCNCCO)c(Br)c1 [CBK265066G],82.6319
18,Cc1ccc(SCCNC(=O)CSc2n[nH]c(=O)n2C2CC2)cc1 [CBK295605],84.7982
19,Cc1cccc(C2(CNC(=O)C3COCCO3)CCCCC2)c1 (stereo not shown) [CBK305087],49.3319
20,CCN1CCCC2(CCN(C(=O)c3ccoc3)C2)C1 (stereo not shown) [CBK132832],50.4899
21,CN1C(=O)c2ccccc2C(=O)[C@@]2(C)CN(CC(C)(C)C)C[C@@H]12 [CBK283481],86.1218

row,Structure (SMILES),% of control remaining
1,O=C(O)CCc1ccc(S(=O)(=O)Nc2ccc(N3CCCC3=O)cc2)cc1 [CBK295647],91.0791
2,CC(=O)Nc1cccc(-c2cnc3[nH]c(=O)n([C@H](C)c4ccccc4)c3n2)c1 [CBK064188],92.2343
3,Cc1cccc(CN2CC[C@@H]3[C@H](C2)[C@@H](c2ccsc2)CN3C(=O)c2ccccc2F)c1 [CBK285659],93.3672
4,C(=N\N1CCOCC1)/c1ccc2c(c1)OCO2 [CBK026446],36.1429
5,c1cnn(CCNc2nc3nonc3nc2N2CCCCC2)c1 [CBK306740],85.264
6,O=S(=O)(NCCn1c(-c2ccncc2)nc2ccccc21)c1ccccc1 [CBK288578],75.6121
7,COc1cccc(Cn2c(C3CCNCC3)cc3cccnc32)c1 [CBK285076],87.2074
8,CC1CCN(C(=O)c2cc(-c3ccco3)[nH]n2)CC1 [CBK296648],104.477
9,Cc1ccc(S(=O)(=O)NC(CC(=O)Nc2ccc(Br)cc2)c2ccccc2)cc1 (stereo not shown) [CBK265110],76.5414
10,Cc1cc(=O)oc2ccc(OCC(=O)N(Cc3ccc(F)cc3)Cc3ccco3)cc12 [CBK266639],85.1322
11,CCCCC(C(=O)O)N1C(=O)C2CC=C(Cl)CC2C1=O (stereo not shown) [CBK286536],101.885
12,Cc1ccc2c(C)c(C(=O)Nc3sc4c(c3C(=O)NCc3ccco3)CCC4)oc2c1 [CBK267662],117.104
13,O=C(NO)Nc1cc(Cl)cc(Cl)c1 [CBK016430],35.8061
14,CC(=O)NC(O)C(=O)c1cccs1 (stereo not shown) [CBK027756],82.5835
15,Cn1c(=O)cc(Oc2ccc(F)cc2)c2ccccc21 [CBK281451],102.111
16,Cc1cccc(CN(CC(C)(C)CN)C(=O)NC(C)c2cccc3ccccc23)n1 (stereo not shown) [CBK002423C],90.4408
17,CCOCN(C(=O)Cn1c(C(C)O)nc2ccccc21)c1c(C)cccc1CC (stereo not shown) [CBK297722],96.2092
18,CC1(C)CC(=O)c2cnc3ncnn3c2C1 [CBK007345],90.231
19,O=C1NC(=O)C(CCCCN2CCC(Cc3ccccc3)CC2)N1 (stereo not shown) [CBK126435],100.175
20,CCCN1CCC(NC(=O)c2cc(COc3cccc(F)c3)[nH]n2)CC1 [CBK306753],73.2259
21,Cc1nc(COc2ccccc2)nc(O)c1Cl [CBK057810],76.1999

row,Structure (SMILES),% of control remaining
1,Cc1ccc(S(=O)(=O)Nc2ccc(Nc3cc(-c4cc(C(F)(F)F)cc(C(F)(F)F)c4)ncn3)cc2)cc1 [CBK090968],127.133
2,Cc1csc(N2CCN(C(=O)CCc3nc(C(C)C)no3)CC2)n1 [CBK305341],64.891
3,Cc1nc(C2CCN(Cc3ccccc3)C2)c2ccccn12 (stereo not shown) [CBK282111],106.699
4,O=C(O)C(Cc1c[nH]cn1)N1C(=O)C2C3C=CC(C3)C2C1=O (stereo not shown) [CBK286705],79.9564
5,Cc1nnc(SCCCCSc2nnc(C)n2N)n1N [CBK265686],80.0709
6,Cc1ccc(-c2cc(C(F)(F)F)n3ncc(C(=O)NCc4c(C)nn(C)c4C)c3n2)cc1 [CBK293956],79.7792
7,Cc1nc2ncnn2c(C)c1CCC(=O)Nc1cccc(CCc2ccncc2)c1 [CBK285557],82.3916
8,CC(C)CNc1nc(-c2ccc(F)cc2)cnc1N [CBK063815],83.1913
9,Cc1nc2c(c(=O)[nH]1)CN(Cc1cn(C(C)C)c3ccccc13)CC2 [CBK284014],107.111
10,Cc1ccn2cc(-c3ccc4c(c3)CC(C)N4S(C)(=O)=O)nc2c1 (stereo not shown) [CBK285183],107.552
11,Cc1ccc(C(=O)Nc2nnn(C)n2)c(Cl)c1 [CBK287856],111.538
12,Oc1ccc(-c2oncc2-c2ccccc2)c(O)c1 [CBK288228],79.1144
13,O=C(Cc1ccccc1)N1CCN(CCCc2ccccc2)CC1 [CBK263451G],100.573
14,O=C(NC1CCCC1)c1ccnc2ccccc12 [CBK200237],93.7398
15,COC1C(O)C(CO)OC1n1cc(I)c(N)nc1=O (stereo not shown) [CBK201296],103.734
16,CCCC/C=C/c1cncc(NCc2ccc(OC)cc2)n1 [CBK037933],128.292
17,Cc1ccc(-n2nc(C(=O)NC3(C#N)CCSC3)cc2C)cc1 (stereo not shown) [CBK306403],111.179
18,Cc1cc(N(C)CCOc2ccccc2F)nc(N)n1 [CBK305969],35.699
19,COCCN(Cc1ccccc1C)C(=O)C1CCc2nn(C)c(=O)n2C1 (stereo not shown) [CBK306934],81.6
20,NCCCNC(=O)c1cc2ccccc2[nH]1 [CBK267639],90.019
21,CC(C)(C)c1cc(CN(Cc2cc(C(C)(C)C)c(O)c(C(C)(C)C)c2)C2CCCCC2)cc(C(C)(C)C)c1O [CBK261996],81.6582

row,Structure (SMILES),% of control remaining
1,CCN(CC)C(=O)C1CCCN(C(=O)Nc2ccc3c(c2)OCCO3)C1 (stereo not shown) [CBK156135],93.1003
2,O=C(O)c1ccc(CN2C(=O)c3ccc(C(=O)O)cc3C2=O)cc1 [CBK262823],99.944
3,COc1ccccc1-c1ccc(CN2CCC(NC(C)=O)(c3ccc(F)cc3)CC2)cc1 [CBK286349],92.1876
4,CCOC(=O)N1CCN(S(=O)(=O)c2ccc3c(c2)oc(=O)n3C)CC1 [CBK304667],37.64
5,CC(C)(Oc1ccc(F)cc1)C(=O)N1CCC(C(=O)NCCc2ccccc2)C1 (stereo not shown) [CBK285702],102.713
6,Cc1c(CNc2nnc(C(C)(C)C)o2)cnn1C [CBK306439],68.5598
7,CCc1nn(CC(=O)NCC2CC2)c(=O)c2cc3ccsc3n12 [CBK284129],85.9717
8,CN1CCN(c2cnn(CCCOc3ccccc3)c(=O)c2)CC1 [CBK307203],106.877
9,Cc1nccn1-c1ccc(NC(=O)c2ccn(C(F)F)n2)cc1 [CBK281410],84.7755
10,CC(=O)N1CCCC(c2nc(-c3ccncc3)ncc2-c2ccccc2)C1 (stereo not shown) [CBK291110],124.247
11,Cc1cc(C(=O)Nc2nnc(Cc3ccccc3)s2)c2ccccc2n1 [CBK295607],108.791
12,CCOc1ccc(-c2cn(C(=O)Nc3ccccc3)nc2N)cc1 [CBK267317],110.727
13,COc1cccc(OCC(O)CN2CCN(Cc3ccccc3)CC2)c1 (stereo not shown) [CBK074856C],88.4178
14,Fc1c(CN2CCOCC2)cccc1CN1CCOCC1 [CBK085967],96.7591
15,CC(NC(=O)CC(F)(F)F)c1nc(-c2ccncc2)cs1 (stereo not shown) [CBK306370],89.1167
16,COc1ccc(OC)c(C(C)NC(=O)C2CCN(CCc3cccs3)CC2)c1 (stereo not shown) [CBK148766],99.1947
17,O=C(Nc1ccccc1OC1CCNCC1)c1ccccc1 [CBK050238T],85.5684
18,CC(=O)Nc1ccc(C2=NC3SC(c4ccc(NC(C)=O)cc4)=NC3S2)cc1 (stereo not shown) [CBK019799],101.586
19,c1ccc(C(NCc2cnc(C3CCC3)s2)C2CCCC2)nc1 (stereo not shown) [CBK304022],51.0343
